The other results are listed elsewhere or left out.

The test system of this test is PfAP2-HC AP2 domain (GST-tagged). The experiment in a line: gcPBM binding intensity (ln(normalized median fluorescence intensity)); higher = stronger DNA binding. An outline of the steps:
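The binding buffer was 1× PBS containing 1% milk, 0.2 mg/ml BSA, 0.5% salmon testes DNA and 0.03% Triton X-100. In it, GST-tagged P. falciparum DNA-binding domains expressed in E. coli were applied for 1 h to an Agilent 4 × 180k array of primer-extended double-stranded 36-bp intergenic genomic probes plus negative controls. Binding intensity, read with Alexa488 anti-GST antibody and a 488 nm scan, is the highest Masliner-normalised natural-log median intensity across replicate spots of either probe orientation.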
Regarding “TTTTAAACAGGACACACACACATATATATATATATA [CACACA_site4664]”, the “gcPBM binding intensity (ln)” value turned out to be 10.5. As for “AGTACGTAAATTATAATACACACTATAGGATATTCT [CACACA_site2559]”, the “gcPBM binding intensity (ln)” value worked out at 9.87. In the case of “TTTTCTACATCTTGTTGTACGAAAAATAAAAAAAAT [XGTACX_site4620]”, the “gcPBM binding intensity (ln)” value amounted to 9.17. Turning to “ATATTATAATATTTATGTACATATATATAATATATA [XGTACX_site1633]”, the “gcPBM binding intensity (ln)” value is 9.43. Regarding “TATTAGCATGTTATTACACACAATATAAGATATATA [CACACA_site6775]”, the “gcPBM binding intensity (ln)” value came to 9.65. As for “ACATTTTGTGTTTTAGCACACAATTTTTCAGAATAT [CACACA_site2961]”, the “gcPBM binding intensity (ln)” value came out at 9.74.

Turning to “AATATATATTTATAAACACACACCAAAATTTGTGCT [CACACA_site3091]”, the “gcPBM binding intensity (ln)” value came to 9.88. In the case of “TAAAAAAAAACAGAAACACACATTATTCATATATAT [CACACA_site2049]”, the “gcPBM binding intensity (ln)” value is 10.2. Consider “AAAATATTTATGTATGCATGTTGTAATATTTCTTTA [TGCATGCA_site296]”, for which the “gcPBM binding intensity (ln)” value turned out to be 9.61. In the case of “ATTTCCCCTTTTTATTGTACATTTTTATTTGTTACT [XGTACX_site4845]”, the “gcPBM binding intensity (ln)” value was 10. Turning to “TATGCTATATATTTAGTGCATATATATAACTTTTAT [GTGCAC_site9902]”, the “gcPBM binding intensity (ln)” value was found to be 9.42.

With “TATATATGTATCATTACACACATGTATACTTATTTG [CACACA_site4138]”, the “gcPBM binding intensity (ln)” value turned out to be 9.97. For “TGTATAAATATATATACACACATATTTATATATATA [CACACA_site755]” the value was 9.68; for “TACATTTGTATAAATAGTACGCGAAAACAAAAAAAA [XGTACX_site6246]”, 9.75.

With “ATATATGTGCCCATATATATATATATAAATATATGT [GTGCAC_negctrl_site226]”, the “gcPBM binding intensity (ln)” value stood at 9.65. For “ATAATATAAATAATTATACACACTTAATATATATAT [CACACA_site2782]”, the “gcPBM binding intensity (ln)” value was found to be 9.76.

Regarding “GTATGTATGTATGTATGTACGTATTTATTTATTTAA [XGTACX_site726]”, the “gcPBM binding intensity (ln)” value was determined as 9.73. In the case of “AAGAAAAATAATTAGGGTGAAAATATATAGAGTAAA [TGCATGCA_negctrl_site590]”, the “gcPBM binding intensity (ln)” value amounted to 9.69.

Turning to “CAATTCTTAAGTTCTTGTACGAAAAACGACAATTTA [XGTACX_site3890]”, the “gcPBM binding intensity (ln)” value is 9.34. With “GGTAATAATATGCATAGTACATAATATATATATATA [XGTACX_site6793]”, the “gcPBM binding intensity (ln)” value amounted to 9.72. For “TATTATATAAAATATTTTATTATATCATCTTCTCTA [XGTACX_negctrl_site319]”, the “gcPBM binding intensity (ln)” value amounted to 9.44.

With “ATCATATTTTTATGTGTGCACTTTTTTTTTTTTTTT [GTGCAC_site9555]”, the “gcPBM binding intensity (ln)” value was found to be 10.1. Take “CTCTTATACATATTCCTGCACTTATTTTTAAAAACA [GTGCAC_site9620]”: the “gcPBM binding intensity (ln)” value stood at 9.75. The value for “AAAAATGGTGTTAACACACACATATAAATAAATATA [CACACA_site6412]” was 10.4; that for “AAGGATCACCCACAAACACACATATATATATATATA [CACACA_site559]” was 10.7.

On to “AACATAAGTAATATTTGTACATATATAATAATATAT [XGTACX_site5123]”, for which the “gcPBM binding intensity (ln)” value was 9.74. With “AACATGCAAACATGCACACAGAAAAAAAAAATATAT [CACACA_site1565]”, the “gcPBM binding intensity (ln)” value amounted to 10. “TTACACATACATATGTGGGAAAATATTGCTACATAT [CACACA_negctrl_site463]”: the “gcPBM binding intensity (ln)” value stood at 9.78.

For the sequence “AAGAAAAGCATAGATGCACACATATATATATATATA [CACACA_site8675]”, the “gcPBM binding intensity (ln)” value amounted to 10.5. For the sequence “GGAACTTAAAAAAAATGTACTTATAAAAAAGGAAAT [XGTACX_site8186]”, the “gcPBM binding intensity (ln)” value amounted to 9.56. For the sequence “AAAAAAATATATATATGTACATAACTTTGTTGTGAT [XGTACX_site5243]”, the “gcPBM binding intensity (ln)” value was determined as 9.8.

For “TGTTAAATTATTTATCAGATTATTATTTGTAAATAA [CACACA_negctrl_site1535]”, the “gcPBM binding intensity (ln)” value turned out to be 9.28.

With “TTTGAACATTTTGCAAGTACAAAAAAATAATATATC [XGTACX_site8079]”, the “gcPBM binding intensity (ln)” value was found to be 9.53.

For “TATATATATATATATACACACATATATATATTTTTC [CACACA_site3983]”, the “gcPBM binding intensity (ln)” value amounted to 10.1. For “ATCATTATATTATGGTGTACCCATATATAATTATCA [XGTACX_site551]” the value was 9.61. The value for “AATTTAAAGAATTGTAGTACAATGAAATATATATAA [XGTACX_site7970]” was 9.95; that for “CATTAAACCGTGGGAGCACACACACCCACCCACCCA [CACACA_site8000]” was 10.

For the sequence “AATACCTATGGAATTAATAATATGTGTACAGACACA [TGCATGCA_negctrl_site547]”, the “gcPBM binding intensity (ln)” value was 9.63. For “AACAATGGATTATTCACACATAAAAAAATTCACATT [CACACA_site5437]” the value was 9.66; for “TTATAATAAAAGGCTTTACAATTATTAAACAAATAA [GTGCAC_negctrl_site480]”, 9.35; for “AAAAAAGAAGAGCACACACACATATATAAATATAAA [CACACA_site631]”, 10.4.

Consider “GCCATTGTACCATCCACACACATATATATCTGTATA [CACACA_site5490]”, for which the “gcPBM binding intensity (ln)” value is 10.2.

Turning to “TGGTATTAAGGAGAGGGTACAAAAAAAAAAAAAAAA [XGTACX_site1668]”, the “gcPBM binding intensity (ln)” value turned out to be 9.01.

With “AAAGATGAATTTTTTACACACACCATTTTATAATAT [CACACA_site3676]”, the “gcPBM binding intensity (ln)” value came out at 10.2.

Source of the values: the supplement of paper PMC11417369.
